Source: paper PMC7261776
Read-outs that look alike come from different tables or passages of the source. Results are given in words; binding and its absence hold for the method and conditions named. For some of these results: In cells and extracts the contact can be indirect. Some results given as binding are weak or reduced against the parent protein; the word gives no strength. For some of these results: Where a sequence is shown, tags or fusion partners need not be part of it.

By UniProt entry, the sequences of proteins in these tests, tags left out.
UniProt A0A7G3WX91: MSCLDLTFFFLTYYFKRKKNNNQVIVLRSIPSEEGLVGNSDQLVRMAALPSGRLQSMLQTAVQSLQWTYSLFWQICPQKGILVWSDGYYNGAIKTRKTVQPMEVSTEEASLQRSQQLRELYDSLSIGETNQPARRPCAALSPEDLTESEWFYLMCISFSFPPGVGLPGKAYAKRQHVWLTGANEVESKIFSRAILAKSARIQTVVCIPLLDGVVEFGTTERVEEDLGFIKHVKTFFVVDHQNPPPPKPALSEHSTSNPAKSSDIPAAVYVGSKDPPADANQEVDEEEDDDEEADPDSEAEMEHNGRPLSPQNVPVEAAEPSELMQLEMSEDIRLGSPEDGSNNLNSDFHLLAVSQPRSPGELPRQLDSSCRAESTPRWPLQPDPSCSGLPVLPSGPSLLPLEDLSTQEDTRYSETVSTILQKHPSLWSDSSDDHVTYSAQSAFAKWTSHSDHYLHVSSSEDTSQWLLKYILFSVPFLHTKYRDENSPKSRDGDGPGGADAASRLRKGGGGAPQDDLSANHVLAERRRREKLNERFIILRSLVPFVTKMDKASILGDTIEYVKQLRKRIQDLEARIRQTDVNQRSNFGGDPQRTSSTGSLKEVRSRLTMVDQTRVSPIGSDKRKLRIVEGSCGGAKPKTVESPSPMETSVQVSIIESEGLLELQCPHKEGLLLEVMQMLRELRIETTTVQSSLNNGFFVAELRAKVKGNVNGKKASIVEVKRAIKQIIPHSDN
UniProt A0A7G3WX95: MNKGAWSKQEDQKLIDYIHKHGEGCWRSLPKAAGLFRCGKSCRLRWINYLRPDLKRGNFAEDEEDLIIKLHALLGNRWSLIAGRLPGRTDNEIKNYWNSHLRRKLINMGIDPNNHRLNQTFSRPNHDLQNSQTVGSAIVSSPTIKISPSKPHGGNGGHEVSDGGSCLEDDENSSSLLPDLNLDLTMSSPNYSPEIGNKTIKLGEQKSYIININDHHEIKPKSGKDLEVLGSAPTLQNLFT
UniProt A0A7G3WX94: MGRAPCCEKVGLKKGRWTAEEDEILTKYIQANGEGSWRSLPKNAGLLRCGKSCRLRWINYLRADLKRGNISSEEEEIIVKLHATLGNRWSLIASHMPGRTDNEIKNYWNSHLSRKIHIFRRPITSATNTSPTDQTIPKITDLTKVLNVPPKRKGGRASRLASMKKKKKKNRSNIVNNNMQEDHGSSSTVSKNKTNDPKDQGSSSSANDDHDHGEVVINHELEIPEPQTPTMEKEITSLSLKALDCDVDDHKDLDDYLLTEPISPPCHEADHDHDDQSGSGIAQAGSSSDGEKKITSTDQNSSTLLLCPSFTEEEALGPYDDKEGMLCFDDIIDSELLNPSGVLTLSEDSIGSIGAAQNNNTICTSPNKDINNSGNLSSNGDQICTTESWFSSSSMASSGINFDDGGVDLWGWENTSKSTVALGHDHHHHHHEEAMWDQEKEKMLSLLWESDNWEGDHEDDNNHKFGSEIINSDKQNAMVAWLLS
UniProt A0A7G3WX89: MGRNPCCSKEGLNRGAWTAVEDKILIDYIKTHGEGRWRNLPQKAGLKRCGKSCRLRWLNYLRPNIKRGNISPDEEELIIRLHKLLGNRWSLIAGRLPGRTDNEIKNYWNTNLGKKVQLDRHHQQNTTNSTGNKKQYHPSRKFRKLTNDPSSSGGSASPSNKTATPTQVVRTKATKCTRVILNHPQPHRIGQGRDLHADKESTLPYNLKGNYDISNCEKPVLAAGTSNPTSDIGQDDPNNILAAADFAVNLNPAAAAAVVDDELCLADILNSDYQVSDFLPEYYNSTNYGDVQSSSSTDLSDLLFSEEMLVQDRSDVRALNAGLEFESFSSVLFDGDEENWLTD
UniProt A0A7G3WX88: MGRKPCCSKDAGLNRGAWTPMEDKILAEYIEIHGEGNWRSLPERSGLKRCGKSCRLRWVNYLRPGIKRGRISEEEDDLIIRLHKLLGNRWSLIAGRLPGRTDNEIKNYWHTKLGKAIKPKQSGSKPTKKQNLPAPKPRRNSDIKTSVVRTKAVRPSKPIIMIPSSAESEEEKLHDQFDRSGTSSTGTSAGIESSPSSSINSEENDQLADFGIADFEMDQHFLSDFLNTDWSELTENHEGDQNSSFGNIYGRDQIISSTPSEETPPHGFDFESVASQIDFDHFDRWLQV

Experiments:
[1] = target: T1, TTG1-NLuc (Morus alba L. cv. Hongguo2); test: split reporter; split luciferase complementation in Nicotiana benthamiana leaves (pCambia1300nLUC / pCambia1300cLUC), firefly luciferase activity 3 days after infiltration
T1 sequence: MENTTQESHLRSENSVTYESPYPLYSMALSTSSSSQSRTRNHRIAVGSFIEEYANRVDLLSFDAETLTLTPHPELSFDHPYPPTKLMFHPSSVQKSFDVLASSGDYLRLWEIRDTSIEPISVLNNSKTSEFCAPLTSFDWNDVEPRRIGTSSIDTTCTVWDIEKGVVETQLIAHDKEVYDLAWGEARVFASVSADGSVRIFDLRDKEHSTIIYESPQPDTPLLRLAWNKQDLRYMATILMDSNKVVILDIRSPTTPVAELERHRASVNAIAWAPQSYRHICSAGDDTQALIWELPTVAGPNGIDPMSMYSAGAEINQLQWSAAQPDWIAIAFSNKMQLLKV

[2] = target: T2, TTG1 (BiFC fusion) (Morus alba L. cv. Hongguo2); test: split reporter; BiFC with pSPYNE and pSPYCE fusions, as described by Lv et al.
T2 sequence: T1 sequence

[3] = target: T3, GL3 (BiFC fusion) (Morus alba L. cv. Hongguo2); test: as above
T3 sequence: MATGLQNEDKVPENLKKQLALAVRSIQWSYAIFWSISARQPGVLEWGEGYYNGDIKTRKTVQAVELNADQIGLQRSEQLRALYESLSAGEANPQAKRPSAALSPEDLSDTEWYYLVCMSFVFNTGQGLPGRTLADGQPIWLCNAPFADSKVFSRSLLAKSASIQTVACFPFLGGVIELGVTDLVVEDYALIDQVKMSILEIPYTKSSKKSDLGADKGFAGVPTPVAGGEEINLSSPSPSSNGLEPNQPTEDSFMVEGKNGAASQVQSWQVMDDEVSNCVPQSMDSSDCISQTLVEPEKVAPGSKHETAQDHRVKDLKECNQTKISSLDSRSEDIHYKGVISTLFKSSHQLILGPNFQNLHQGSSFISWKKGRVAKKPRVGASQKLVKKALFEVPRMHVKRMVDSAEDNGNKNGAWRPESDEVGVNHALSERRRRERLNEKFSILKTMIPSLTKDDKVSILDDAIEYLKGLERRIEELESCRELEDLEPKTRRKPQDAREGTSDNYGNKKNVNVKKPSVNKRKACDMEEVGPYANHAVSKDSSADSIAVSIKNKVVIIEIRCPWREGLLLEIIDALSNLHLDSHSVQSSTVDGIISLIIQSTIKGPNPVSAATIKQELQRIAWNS

[4] = target: bHLH3 (BiFC fusion) (Morus alba L. cv. Hongguo2); test: as above
[5] = target: bHLH3 (yeast two-hybrid fusion) (Morus alba L. cv. Hongguo2); test: two-hybrid; yeast two-hybrid with pGADT7 and pGBKT7 fusions; SD-Trp-Leu-His-Ade+(X-a-Gal) medium
[6] = target: T4, GL3 (yeast two-hybrid fusion) (Morus alba L. cv. Hongguo2); test: as above
T4 sequence: T3 sequence

[7] = target: T5, TTG1 (yeast two-hybrid fusion) (Morus alba L. cv. Hongguo2); test: as above
T5 sequence: T1 sequence

[8] = target: T6, CLuc-GL3 (Morus alba L. cv. Hongguo2); test: split reporter; split luciferase complementation in Nicotiana benthamiana leaves (pCambia1300nLUC / pCambia1300cLUC), firefly luciferase activity 3 days after infiltration
T6 sequence: T3 sequence

[9] = target: CLuc-bHLH3 (Morus alba L. cv. Hongguo2); test: as above
[10] = target: T7, TTG1 in pBridge MCS I (yeast three-hybrid bait) (Morus alba L. cv. Hongguo2); test: yeast three-hybrid; Y2HGold; TTG1 in pBridge MCS I, bHLH3 in pBridge MCS II, MYB in pGADT7; SC-Leu-Trp-Met-His medium with 0 and 30 mM 3-AT
T7 sequence: T1 sequence

[11] = target: T5, TTG1 (yeast two-hybrid fusion) (Morus alba L. cv. Hongguo2); test: two-hybrid; yeast two-hybrid with pGADT7 and pGBKT7 fusions; SD-Trp-Leu-His-Ade+(X-a-Gal) medium; remark: listed apart in the source

CLuc-bHLH3 (from UniProt A0A7G3WX91 1-732)
binding [1]: binds

MYB4 (BiFC fusion) (from UniProt A0A7G3WX95 1-240)
binding [2]: binds
binding [3]: binds
binding [4]: binds

MYBF (BiFC fusion) (from UniProt A0A7G3WX94 1-484)
binding [2]: no binding
binding [3]: no binding
binding [4]: no binding

MYBF (yeast two-hybrid fusion) (from UniProt A0A7G3WX94 1-484)
binding [5]: no binding
binding [6]: no binding
binding [7]: no binding

TT2L1 (BiFC fusion) (from UniProt A0A7G3WX89 1-343)
binding [2]: no binding
binding [3]: binds
binding [4]: binds

TT2L1 (yeast two-hybrid fusion) (from UniProt A0A7G3WX89 1-343)
binding [5]: binds
binding [6]: binds
binding [7]: no binding

TT2L1-NLuc (from UniProt A0A7G3WX89 1-343)
binding [8]: binds
binding [9]: binds

TT2L2 (BiFC fusion) (from UniProt A0A7G3WX88 1-288)
binding [2]: no binding
binding [3]: binds
binding [4]: binds

TT2L2 (yeast two-hybrid fusion) (from UniProt A0A7G3WX88 1-288)
binding [5]: binds
binding [6]: binds
binding [7]: no binding

TT2L2-NLuc (from UniProt A0A7G3WX88 1-288)
binding [8]: binds
binding [9]: binds

bHLH3 (BiFC fusion) (from UniProt A0A7G3WX91 1-732)
binding [2]: binds

bHLH3 (yeast two-hybrid fusion) (from UniProt A0A7G3WX91 1-732)
binding [7]: binds

bHLH3 in pBridge MCS II (yeast three-hybrid bridge) (from UniProt A0A7G3WX91 1-732)
binding [10]: binds

B1: MYBA (BiFC fusion) (protein, UniProt A0A7G3WX87 1-311)
chain: MQTEGCSSTGGVRKGAWTREEDILLKKCIDKYGEGKWQLVPSRAGLNRCRKSCRLRWMNYLKPDVKRGEFTVDEVDLILRLHKLLGNRWALIAGRIPGRTANDVKNYWNTHLRKKVALFPHDKNTKNTNNDIIAKSKVFRPRPRTPKTQPSLTNKNNSASSTTNFAAISINIQPTDDGNNNNNNNINYNNNNNNEPVIPVLEDSKYWWESLLDDITSDEGVANSVSSTGLLDHGQPNNGNIANFLSELEADQPALSISPWPTDVTDSATSTCVNLVEDDYGHQNSWTDFIMDMDVELWGLPSKDQGNAEMQ
binding [2]: binds
binding [3]: binds
binding [4]: binds

B2: GL3 (BiFC fusion) (protein, UniProt A0A7G3WX92 1-624)
chain: T3 sequence
binding [2]: binds

B3: MYBA-NLuc (protein, UniProt A0A7G3WX87 1-311)
chain: B1 chain
binding [8]: binds
binding [9]: binds

B4: CLuc-GL3 (protein, UniProt A0A7G3WX92 1-624)
chain: T3 sequence
binding [1]: binds

B5: GL3 (yeast two-hybrid fusion) (protein, UniProt A0A7G3WX92 1-624)
chain: T3 sequence
binding [11]: binds

B6: TT2L3 (BiFC fusion) (protein, UniProt A0A7G3WX90 1-238)
chain: MGERRPRISGGSDEGSSRRWTAMEDKTLTEYIRINGERQWNCLPQNAGLKKSGRSCRLRWLNYLKPGIKRGNISQKEEDTIIRLHKNLGNRWSVIAGLLPGRTDNEIKNYWNTKISKKIKEDDCKADSTTSSDPKPSIGHESLEVPNLTTKQQLGLCEVPQTSLNESDETSIPSPEEARMELEDDPVAAQPRDIYGVVHEHFETILSPVRICEDKWQLMHDDVWMDFEIWNTFPDQQY
binding [2]: no binding
binding [3]: no binding
binding [4]: no binding
